Assay results taken from PubChem BioAssay AID493208 (National Center for Advancing Translational Sciences (NCATS), 2011).
In all, about 44,000 compounds went through this assay and about 340 (0.77%) were called active. Inconclusive results (about 5%) are left out. Calls come from the whole dose curve; as a rule, active = well fitted inhibition curve with a large enough effect; inconclusive = small, poorly fitted or top-dose-only effect; inactive = flat fitted curve, though single readings scatter. Some of the results follow.

experiment: Acumen qHTS Assay for Inhibitors of the mTORC1 Signaling Pathway in MEF (Tsc2-/-, p53-/-) Cells: Sytravon; details: phospho-rpS6 immunofluorescence/PI, 24 h; series mostly up to 38.3 µM; activity change, negative = inhibition: at the top concentration;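 note: plate controls were DMSO for no effect and rapamycin for full effect; nearly all actives have a fitted effect of over 50% in size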
How it was run: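 Tsc2-/-, p53-/- mouse embryonic fibroblasts (empty-vector line) exposed to compound 24 hrs at 37 C, fixed, immunostained for phospho-rpS6 and counterstained with propidium iodide. Acumen laser scanning gives % positive cells from Alexa 488/PI ratio, thresholded using 7.5 nM rapamycin; PI count gives viability.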

Activity change, negative = inhibition, inactive:
CCOCCCNc1ncnc2c1cnn2-c1ccc(C)c(C)c1 -6.25%, COCCNC(=O)Cn1c(=O)n(CCCCCC(=O)NCc2ccc3c(c2)OCO3)c(=O)c2sccc21 -2.75%, COc1ccc(-c2nc(CSc3nncn4c3cc3sccc34)c(C)o2)cc1OC 1.29%, O=C(CN1C(=O)CCc2cc(S(=O)(=O)N3CCOCC3)ccc21)NCc1ccccc1 1.76%, CCNc1nc(OC)nc(Oc2ccc(=O)[nH]n2)n1 7.38%, CCCNC(=O)c1ccc2nc(CCc3ccccc3)oc2c1 0.371%, Cc1cc(C)cc(S(=O)(=O)c2cn(C)c3cc(N4CCCC4)c(F)cc3c2=O)c1 -6.83%, CCc1ccc(NC(=O)CSC2=Nc3ccccc3C3=NC(CCC(=O)NCc4ccco4)C(=O)N23)cc1 (stereo not given) -7.62%, CCc1ccccc1NC(=O)N(C)CCc1c(C)nn(C)c1C -21.7%, COc1ccc(C(=O)n2nc(-c3ccco3)nc2NCc2cccs2)cc1OC -3.21%, Cc1ccc(-c2nc3sc(CCNC(=O)c4ccc(C)c(C)c4)c(C)n3n2)cc1 5.73%, CC(=O)c1cccc(NC(=O)c2cc(-c3ccc(Cl)s3)nc3ccccc23)c1 -5.21%, COc1ccc(NC(=O)CC2C(=O)N(c3cccc(C)c3)C(=O)N2C2CCCCC2)cc1 (stereo not given) 5.49%, COc1ccc(-c2nnc(SCC(=O)Nc3ccc(C(C)C)cc3)nc2-c2ccc(OC)c(OC)c2)cc1OC -3.8%, CC(C)c1ccc(S(=O)(=O)c2nnn3c2nc(N2CCCCC2)c2sccc23)cc1 0.377%, COc1cccc(C(=O)Nc2ccc(-c3cc(C(F)(F)F)nn3-c3ccccc3)cc2)c1 5.25%, Cc1ccc(C)c(CN2C(=O)N(c3cc(Cl)ccc3C)S(=O)(=O)c3ccccc32)c1 -0.638%, Cc1ccc(C)c(Cn2c(-c3cccs3)nc3ccccc32)c1 2.39%, CC(C)Cc1ccc(S(=O)(=O)Nc2cc3c(cc2N2CCOCC2)n(C)c(=O)c(=O)n3C)cc1 -14%, CCOc1ccccc1CNS(=O)(=O)c1ccc2[nH]c(=O)ccc2c1 0.995%, CN(Cc1ccccc1)S(=O)(=O)c1cc(Br)cc2c1N(C(=O)C1CC1)CC2 2.26%, CCC(C(=O)Nc1c(C)cc(C)cc1C)n1c(=O)c(-c2ccccc2NC(C)=O)nc2ccccc21 (stereo not given) -0.473%, CCOC(=O)C1CCCN(C(=O)c2cc3c(=O)[nH]c4ccc(C)cc4c3s2)C1 (stereo not given) -1.16%, COc1ccc(NC(=O)CSc2nnc(NC(=O)Nc3ccc(OC)cc3)s2)cc1 -7.05%, CCN(CCCNC(=O)CN1N=C(c2ccc(OC)cc2)CCC1=O)c1cccc(C)c1 1.6%, CCCCN(C)CCCNC(=O)c1cc(-c2ccc(Br)s2)nc2ccccc12 -21.7%, CCOc1ccc(CCNC(=O)CCCn2nc(C)c3sc4ccccc4c3c2=O)cc1 5.04%, COc1cccc(Nc2sc(C(=O)c3ccc(F)cc3)c(N)c2C(=O)NCc2ccc(Cl)cc2)c1 -5.57%, Cc1cccc(NC(=O)CCCCCn2c(=O)[nH]c3ccsc3c2=O)c1 -1.73%, Cc1cccc(N2CCN(C(=O)c3cn(CC(C)C)c(=O)c4c3c3ccccc3n4C)CC2)c1C 7.57%, COc1ccc(-c2ccc(NS(=O)(=O)c3ccc(C(C)=O)cc3)cc2)nn1 -17.1%, COc1cccc(N2CC(NC(=O)CCCc3ccccc3)CC2=O)c1 (stereo not given) 0.323%, Cc1ccc(NS(=O)(=O)c2c(C)[nH]c(=O)[nH]c2=O)c(C)c1 -2.53%, Cc1ccc(-c2noc(CNC(=O)c3ccc(Br)o3)n2)cc1 -13.7%, CCOc1ccccc1CNC(=O)C1CCN(c2nn3cc(-c4ccc(F)cc4)nc3s2)CC1 3.08%, CCCCCCOc1ccc(C2C(=O)N(C3CCCCC3)CC(=O)N2CCC)cc1 (stereo not given) 6.27%, Cc1ccccc1-c1nc2cc(NC(=O)Cc3ccc(Cl)cc3)ccc2o1 3.14%, Cc1cccc(N2CCN(C(=O)c3cccc(-n4c(C)nc5cccnc54)c3)CC2)c1C -16.2%, CC(C)c1ccc(CN(Cc2ccco2)c2cnc(S(C)(=O)=O)nc2C(=O)Nc2ccc(F)cc2)cc1 -2.27%, Cc1ccc(C(=O)Nc2cc3nn(-c4ccccc4)nc3cc2Cl)c(C)c1 3.56%, N#C/C(=C\c1ccc(Cl)cc1Cl)c1nc(-c2cccc(Cl)c2)cs1 -7.37%, CCOc1ccccc1N(CC(=O)NCCSc1ccccc1)S(=O)(=O)c1ccccc1 10.2%, COc1ccccc1Cc1nc2ccccc2nc1SCC(=O)N(C)c1ccc(F)cc1 1.23%, Cc1cccc(N2CCN(C(=O)Nc3cn(CC(C)C)c(=O)c4ccccc34)CC2)c1C -0.561%, Cc1nnc(N2CCC(C(=O)NCCc3ccccc3Cl)CC2)c2nn(-c3ccccc3)c(C)c12 -8.29%, CCc1nn(CC(=O)NCCCN(CC(C)C)CC(C)C)c(=O)c2cc3sc(C)cc3n12 -6.62%, CCCCN(C)C(=O)C1CCCN(c2ncnc3onc(C)c23)C1 (stereo not given) -7.87%, COc1ccccc1N1CCN(C(=O)Cn2cnc3onc(-c4ccc(F)cc4)c3c2=O)CC1 6.88%, Cc1nn(-c2ccccc2)c2c1N(CC(=O)N1CCN(c3cccc(Cl)c3)CC1)C(=O)CS2 -3.04%, O=C(c1ccc2c(=O)n(CCc3ccccc3)c(=O)[nH]c2c1)N1CCN(c2ccc(F)cc2)CC1 -3.18%, CCOc1ccc(C(=O)Nc2cccc(-c3nc4cc(Cl)cc(Cl)c4o3)c2)cc1 -4.45%, COc1cccc(N2CC(NC(=O)c3ccco3)CC2=O)c1 (stereo not given) -8.04%, CCOc1ccc(CNC(=O)c2cc(=O)[nH]c3ccc(S(=O)(=O)N4CCCC4)cc23)cc1 7.04%, COc1ccc(C(=O)Nc2nc3c(s2)CCCC3)cc1Cl -9.12%, Cn1c(=O)c2c(-c3ccccc3)n3c(c2n(C)c1=O)C(c1ccco1)Nc1ccccc1-3 (stereo not given) -7.43%, COc1ccc(Cl)cc1CNCCSc1nnnn1C -20.3%, CCCn1cc(S(=O)(=O)c2ccc(CC)cc2)c(=O)c2cc(F)c(N(CC)CC)cc21 -6.37%, CCOc1cccc(NC(=O)CSc2ncc(-c3ccccc3)[nH]2)c1 1.4%, Cc1cccc(N2CCN(C(=O)c3ccc4c(c3)N(Cc3cccc(Cl)c3)C(=O)c3ccccc3S4=O)CC2C)c1 (stereo not given) -7.27%, CCOc1cccc2sc(N3CCN(C(=O)C4CC4)CC3)nc12 2.84%, Cc1cc(C)cc(NC(=O)CCCn2c3ccccc3c(=O)c3ccccc32)c1 -23.9%, CC(=O)c1ccc(N2CCN(C(=O)CCCCn3c(=O)[nH]c4ccccc4c3=O)CC2)cc1 -7.33%, Cc1ccc(NC(=O)CCC(=O)N2Cc3ccccc3Oc3ncccc32)cc1F 2.76%, O=C(NCc1ccc(F)cc1)c1ccc2nc(N3CCCCC3)sc2c1 -0.133%, CCOc1ccc(NC(=O)c2ccc3c(c2)CCN3S(=O)(=O)c2ccc(Cl)cc2)cc1 -13.6%, Cc1cccc(Cn2c(=O)n(CCC(=O)NCCc3ccc(Cl)cc3)c(=O)c3sccc32)c1 -2.31%, O=C(NCC(c1ccc2c(c1)OCO2)N1CCOCC1)C(=O)Nc1cccc(Cl)c1 (stereo not given) -1.39%, O=C(O)c1c(CNCc2cccc(F)c2)c2ccccc2n1Cc1ccccc1 -1.69%, Fc1cccc(Cl)c1Cn1c(-c2cccs2)nc2ccccc21 0.329%, COc1ccc(OC)c(CNC(=O)c2nn(C)c3c2CSc2ccccc2-3)c1 -3.41%, CC(=O)c1ccc(NC(=O)c2cc(S(=O)(=O)N3CCCCCC3)cn2C)cc1 -4.04%, Cc1ccc(NC(=O)CCCc2nnc3n(C)c(=O)c4sccc4n23)cc1F 0%, COc1ccc(-c2nc3c(c(SCC(=O)Nc4ccccc4F)n2)Cc2cc(C)ccc2O3)cc1 -3.82%, NC(=O)C1(N2CCCCC2)CCN(C(=O)Nc2ccc(F)cc2)CC1 -10.3%, CCc1ccccc1NC(=O)CN1C(=O)c2ccccc2Sc2ncccc21 -1.63%, CCCNC(=O)c1ccc2c(c1)sc1nc(-c3ccc(C)cc3)cn12 -2.22%, Cc1ccc(C)c(N2CCN(C(=O)C3CCCN(Cc4nc(-c5cccc(Cl)c5)oc4C)C3)CC2)c1 (stereo not given) 0.674%, O=C(CNC(=O)c1ccccc1)OCc1cc(=O)n2ccsc2n1 1.23%, Cc1ccc(N2CC(NC(=O)c3ccc(S(=O)(=O)N4CCCC4)cc3)CC2=O)cc1C (stereo not given) -4.14%, CCn1cc(C(=O)NCCCN2CCCC(C)C2)c(=O)c2cc(S(=O)(=O)N(C)C3CCCCC3)ccc21 (stereo not given) 0.708%, Cc1cc(C)cc(-n2ccn(CC(=O)Nc3cc(C)ccc3C)c(=O)c2=O)c1 3.76%, COc1ccc(CCNc2nc(-c3ccc(OC)c(OC)c3)cc(C(F)(F)F)n2)cc1OC -3.46%, Cc1cccc(CS(=O)(=O)Cc2ccc(C(=O)NCCc3ccccc3)o2)c1 0%, CCOC(=O)c1c(S(=O)(=O)N2CCCC(C(=O)NCc3cccc(OC)c3)C2)c(C)n(C)c1C (stereo not given) -10.8%, COc1ccc(-c2nnc(SCC(=O)NC3CCCC3)nc2-c2ccc(OC)c(OC)c2)cc1OC -0.0452%, CCOc1ccc(N2CC(c3nc4ccccc4n3Cc3ccccc3F)CC2=O)cc1 (stereo not given) -15.8%, COc1cccc(OC)c1C(=O)Nc1cccc(-c2cn3ccsc3n2)c1 -11.8%, O=C(NCc1ccccc1)C1CCN(S(=O)(=O)c2ccc3c(c2)CCCN3C(=O)C2CCC2)CC1 -6.76%, CCOc1ccc(NC(=O)c2ccc(F)c(S(=O)(=O)N(CC)Cc3ccccc3)c2)cc1 0.72%, Cc1cccc(NC(=O)C(=O)NCC(c2cccnc2)N2CCc3ccccc3C2)c1C (stereo not given) 8.39%, O=C(CCC1N=C2c3ccccc3N=C(SCc3cccc(F)c3)N2C1=O)NCc1cccs1 (stereo not given) -1.82%, CCOC(=O)c1scc(-c2ccc(C)cc2)c1S(=O)(=O)N1CCN(c2ccccc2F)CC1 5.46%, Cc1ccc(Cl)cc1N1CCN(C(=O)CCNS(=O)(=O)c2ccc3c(c2)CCN3C(=O)C2CC2)CC1 -4.36%, CCCCCSc1ncnc2c1sc1nc(N3CCOCC3)c3c(c12)CCCC3 -3.42%, Cc1ccc(NC(=O)NCc2cccn2Cc2ccccc2)c(C)c1 0%
